Assays:
[1] = target: T1, human PDGF-Rβ (human, UniProt P09619 33-530, limits assumed); experiment: SPR (BIAcore); column 'Affinity (human)'
T1 construct: Immobilised on an SPR surface ('PDGF-Rβ-functionalized surfaces'); also called hPDGF-Rβ; human PDGF-R beta

[2] = target: T2, murine PDGF-Rβ (mouse, UniProt P05622 32-530, limits assumed); experiment: SPR (BIAcore); column 'Affinity (mouse)', cells shifted one column
T2 construct: Immobilised on an SPR surface; also called mouse PDGF-R beta; mPDGF-Rβ
T2 sequence (looked up): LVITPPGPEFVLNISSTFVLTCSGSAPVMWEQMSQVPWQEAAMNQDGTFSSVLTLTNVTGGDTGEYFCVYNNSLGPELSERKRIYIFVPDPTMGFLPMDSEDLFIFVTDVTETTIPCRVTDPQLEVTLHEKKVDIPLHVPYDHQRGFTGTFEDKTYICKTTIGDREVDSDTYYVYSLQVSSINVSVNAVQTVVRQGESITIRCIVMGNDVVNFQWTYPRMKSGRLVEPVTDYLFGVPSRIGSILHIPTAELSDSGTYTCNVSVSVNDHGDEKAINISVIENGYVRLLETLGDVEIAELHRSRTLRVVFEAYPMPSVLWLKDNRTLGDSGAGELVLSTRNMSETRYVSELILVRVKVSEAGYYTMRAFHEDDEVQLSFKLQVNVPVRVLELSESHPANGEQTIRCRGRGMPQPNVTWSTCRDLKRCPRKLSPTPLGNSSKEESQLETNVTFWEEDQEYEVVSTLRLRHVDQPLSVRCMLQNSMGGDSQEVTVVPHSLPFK

[3] = target: T2, murine PDGF-Rβ; experiment: BIAcore, by Affibody AB; murine target; murine target
[4] = target: T1, human PDGF-Rβ; experiment: BIAcore, by Affibody AB
[5] = target: T3, human PDGF-Rα (human, UniProt P16234 24-524, limits assumed); experiment: SPR, human PDGF-Rα surface per legend paragraph 14, Z2465 injected; concentrations not given
T3 construct: also called hPDGF-Rα

[6] = target: T2, murine PDGF-Rβ; experiment: column 'Affinity (mouse)', cells shifted one column; value is an estimate based on the avidity effect
[7] = target: T1, human PDGF-Rβ; experiment: column 'Affinity (human)'; value is an estimate based on the avidity effect, not a fitted SPR value
[8] = target: T2, murine PDGF-Rβ; experiment: SPR (BIAcore); column 'Affinity (mouse)'

B1: Z2483 (SEQ. ID NO. 18) (designed binder)
chain: GSSHHHHHHLQVDNKFNKELVKAAAEIDALPNLNRRQWNAFIKSLVDDPSQSANLLAEAKKLNDAQAPKVDC
modifications: C-terminal cysteine thiol blocked with N-ethyl maleimide (NEM)
notes: His6-tagged Z-domain (Affibody) polypeptide
How did the Kd [1] turn out when B1 was run?
Its Kd is 0.4 nM.

What about the Kd [2] of the same binder?
The Kd was 6 nM.

B2: Z1982 (SEQ. ID NO. 14) (designed binder)
chain: GSSHHHHHHLQVDNKFNKELVRAAQEIDELPNLNRGQWNAFIKSLVDDPSQSANLLAEAKKLNDAQAPKVDC
modifications: C-terminal cysteine thiol blocked with N-ethyl maleimide (NEM)
notes: as for B1
With B2 as the binder, how does the Kd [1] read?
The Kd was 4 nM.

And the Kd [2]?
Its Kd is 27 nM.

B3: Z2465 (SEQ. ID NO. 16) (designed binder)
chain: GSSHHHHHHLQVDNKFNKELIEAAAEIDALPNLNRRQWNAFIKSLVDDPSQSANLLAEAKKLNDAQAPKVDC
modifications: C-terminal cysteine thiol blocked with N-ethyl maleimide (NEM)
notes: His6-tagged Z-domain (Affibody) polypeptide, monomer; also called His6-Z2465
How did the Kd [1] turn out when B3 was run?
Its Kd is 0.5 nM.

What about the Kd [3] of the same binder?
Its Kd is about 4 nM.

What about the Kd [2] of the same binder?
Its Kd is 7 nM.

What about the Kd [4] of the same binder?
Its Kd is 0.6 nM.

Does B3 bind [5]?
Result: no binding

B4: Z2477 (SEQ. ID NO. 25) (designed binder)
chain: GSSHHHHHHLQVDNKFNKELIAAAAEIDRLPNLNRVQWNAFIKSLVDDPSQSANLLAEAKKLNDAQAPKVDC
modifications: C-terminal cysteine thiol blocked with N-ethyl maleimide (NEM)
notes: as for B1
How did the Kd [1] turn out when B4 was run?
Its Kd is under 1 nM.

B5: Z2516 (SEQ. ID NO. 17) (designed binder)
chain: GSSHHHHHHLQVDNKFNKELVRAAEEIDNLPNLNRKQWNAFIKSLVDDPSQSANLLAEAKKLNDAQAPKVDC
modifications: C-terminal cysteine thiol blocked with N-ethyl maleimide (NEM)
notes: as for B1
B5 was tested. Which Kd [1] did it give?
The Kd was under 1 nM.

B6: (Z2465)2 (SEQ. ID NO. 19) (designed binder)
chain: GSSHHHHHHLQVDNKFNKELIEAAAEIDALPNLNRRQWNAFIKSLVDDPSQSANLLAEAKKLNDAQAPKVDNKFNKELIEAAAEIDALPNLNRRQWNAFIKSLVDDPSQSANLLAEAKKLNDAQAPKVDC
modifications: C-terminal cysteine thiol blocked with N-ethyl maleimide (NEM)
notes: Head-to-tail dimer of Z2465 on a single His6-tagged chain; also called Z2465 dimer; bivalent Z2465
For B6, which Kd [6] is on record?
The Kd was under 7 nM.

What about the Kd [7] of the same binder?
Its Kd is under 0.5 nM.

B7: Ztaq (SEQ. ID NO. 10) control (designed binder)
chain: GSSHHHHHHYYLEVDNKFNKELGWATWEIFNLPNLNGVQVKAFIDSLRDDPSQSANLLAEAKKLNDAQAPKVDC
modifications: C-terminal cysteine thiol blocked with N-ethyl maleimide (NEM)
notes: His6-tagged Z-domain (Affibody) polypeptide used as negative control; also called control polypeptide; non-targeted Ztaq polypeptide
What does the source list for B7?
binding result [1]: no binding; binding result [8]: no binding
